{
  "source": "paper PMC6516726",
  "about": "(ACS Catalysis, 2018)",
  "biological_target": "I107L PETNR (Enterobacter cloacae, UniProt P71278, I108L)",
  "details": "for ΔCp^⧧ / ΔHT0^⧧ / ΔST0^⧧: fit of kobs1 (5–40 °C) to eq 1",
  "key": {"[1]": {"details": "deuterated minus protiated coenzyme, T0 = 298 K"}},
  "data": [
    {"molecule": "[2H][C@@H]1C=CN([C@@H]2O[C@H](COP(=O)(O)OP(=O)(O)OC[C@H]3O[C@@H](n4cnc5c(N)ncnc54)[C@H](O)[C@@H]3O)[C@@H](O)[C@H]2O)C=C1C(N)=O", "note": "[(R)-[4-^2H]-NADH]", "values": [
      {"measurement": "ΔCp^⧧", "setting": "T0 = 298 K", "result": "0.43 ± 0.07", "unit": "kJ mol^–1 K^–1"},
      {"measurement": "ΔHT0^⧧", "setting": "T0 = 298 K", "result": "45.4 ± 0.3", "unit": "kJ mol^–1"},
      {"measurement": "ΔST0^⧧", "setting": "T0 = 298 K", "result": "–103.9 ± 0.9 J mol^–1 K^–1"},
      {"measurement": "Isotope Effect on ΔCp^⧧", "setting": "[1]", "result": "0.19 ± 0.08", "unit": "kJ mol^–1 K^–1"},
      {"measurement": "Isotope Effect on ΔHT0^⧧", "setting": "[1]", "result": "6.7 ± 0.4", "unit": "kJ mol^–1"},
      {"measurement": "Isotope Effect on ΔST0^⧧", "setting": "[1]", "result": "6.1 ± 1.2", "unit": "J mol^–1 K^–1"}
    ]},
    {"molecule": "NC(=O)C1=CN([C@@H]2O[C@H](COP(=O)(O)OP(=O)(O)OC[C@H]3O[C@@H](n4cnc5c(N)ncnc54)[C@H](O)[C@@H]3O)[C@@H](O)[C@H]2O)C=CC1", "note": "[NADH]", "values": [
      {"measurement": "KS", "setting": "25 °C, 50 mM potassium phosphate pH 7.0, 20 μM enzyme", "result": "889 ± 36", "unit": "µM"},
      {"measurement": "kred", "setting": "25 °C, 50 mM potassium phosphate pH 7.0, 20 μM enzyme, fast phase", "result": "1.94 ± 0.02", "unit": "s^–1"},
      {"measurement": "ΔCp^⧧", "setting": "T0 = 298 K", "result": "0.23 ± 0.04", "unit": "kJ mol^–1 K^–1"},
      {"measurement": "ΔHT0^⧧", "setting": "T0 = 298 K", "result": "38.7 ± 0.2", "unit": "kJ mol^–1"},
      {"measurement": "ΔST0^⧧", "setting": "T0 = 298 K", "result": "–110.0 ± 0.8 J mol^–1 K^–1"}
    ]}
  ]
}
